Test results published in PubChem BioAssay (NCATS).
Inconclusive means that the source gave no clear call. Such entries were picked first, then a sample of the others. A potency beside an inconclusive call is a rough fit, not a confirmed value. The source made the active and inactive calls. The call rests on the fitted dose curve; in most records, active means well fitted cell-killing curve with a large enough effect; inconclusive means small, poorly fitted or top-dose-only effect, or effect the other way; inactive means flat fitted curve, though single readings scatter.

What was measured:
Assay in all cases: Primary qHTS to identify gynecologic anti-cancer compounds using libraries of approved drugs and bioactive compounds (AID 1345084); further: nearly all actives have a fitted effect of over 55% in size
Details in all cases: Gynecologic cancer cell panel viability, ATPlite luminescence, 48 h; series mostly up to 57.5 µM
PA-1 = system: PA-1
Outline: (§1)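 Five-concentration response, 48 h; readout is ATP-driven luciferase luminescence.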

SKOV3 = system: SKOV3
Outline: as §1

Tov-21-G = system: Tov-21-G
Outline: as §1

Tov112D = system: Tov112D
Outline: as §1
Potency means the concentration at half of the fitted maximal effect; tags describe the fitted curve by direction and shape.

Structure (SMILES) | Potency (PA-1) | Potency (SKOV3) | Potency (Tov-21-G) | Potency (Tov112D)
CC(=O)OC[C@]12C[C@H](O)C(C)=C[C@H]1O[C@@H]1[C@H](O)[C@@H](OC(C)=O)[C@@]2(C)[C@]12CO2 | active: 1.78 µM | inconclusive: 0.0794 µM [cytotoxic, full curve, poor fit] | active: 0.178 µM | 
CC(C)(C)NC[C@H](O)c1ccc(O)cc1Cl | inconclusive: 0.141 µM [rising, single point] | inconclusive: 0.199 µM [rising, partial curve, poor fit] | inactive | 
C=C1[C@@H](C)[C@H]2[C@H](Cc3ccccc3)NC(=O)[C@]23[C@H](OC(C)=O)/C=C/[C@](C)(O)C(=O)[C@@H](C)C/C=C/[C@H]3[C@@H]1O | active: 1.78 µM | inconclusive: 1.26 µM [cytotoxic, partial curve, poor fit] | inconclusive: 0.447 µM [cytotoxic, full curve, poor fit] | 
COCC(C(=O)OC1CC2CCC(C1)N2C)c1ccccc1 (configuration not stated) | inactive | inconclusive: 39.8 µM [rising, single point] | inactive | 
CCCCCCC1C(=O)O[C@H](C)[C@H](NC(=O)c2cccc(NC=O)c2O)C(=O)O[C@@H](C)[C@@H]1OC(=O)CC(C)C (some centres not stated) | inconclusive: 0.316 µM | active: 0.794 µM | inconclusive: 0.355 µM [cytotoxic, full curve, poor fit] | 
CCN1CCN(C(=O)Cc2ccc(Nc3ncc(F)c(Nc4ccc(C(=O)Nc5ccccc5Cl)cc4)n3)cc2)CC1 | active: 25.1 µM | active: 15.8 µM | active: 28.2 µM | 
Cc1nnc2n1-c1sc(CCc3ccc(CC(C)C)cc3)cc1C(c1ccccc1Cl)=NC2C (configuration not stated) | inconclusive: 28.2 µM [cytotoxic, single point] | inconclusive: 39.8 µM [cytotoxic, single point] | inconclusive: 31.6 µM [cytotoxic, single point] | 
CCCCCCCCCCCCCCCC[N+](C)(C)C | inconclusive: 17.8 µM [cytotoxic, partial curve, poor fit] | active: 28.2 µM | active: 7.94 µM | inconclusive: 28.2 µM [cytotoxic, single point]
Oc1cccc2cccnc12 | inconclusive: 63.1 µM [cytotoxic, single point] | inconclusive: 5.01 µM [rising, partial curve] | inconclusive: 39.8 µM [cytotoxic, partial curve, poor fit] | 
CCN(CC)C(=O)[C@@H]1C=C2c3cccc4[nH]cc(c34)C[C@H]2N(C)C1 | inconclusive: 200 µM [cytotoxic, single point] | inconclusive: 126 µM [cytotoxic, single point] | inactive | 
CC(=O)O[C@@H]1[C@@H](O)[C@H]2O[C@@H]3C=C(C)[C@@H](O)C[C@]3(CO)[C@]1(C)[C@]21CO1 | inconclusive: 0.794 µM [cytotoxic, full curve, poor fit] | active: 1.26 µM | active: 4.47 µM | inconclusive: 7.94 µM [cytotoxic, partial curve, poor fit]
COc1ccc(Cc2nccc3cc(OC)c(OC)cc23)cc1OC | inconclusive: 8.91 µM [cytotoxic, partial curve] | active: 25.1 µM |  | 
CC(=O)OC[C@]12C[C@H](OC(C)=O)C(C)=C[C@H]1O[C@@H]1[C@H](O)[C@@H](O)[C@@]2(C)[C@]12CO2 | inconclusive: 17.8 µM [cytotoxic, partial curve, poor fit] | inconclusive: 1.12 µM [cytotoxic, full curve, poor fit] | inconclusive: 2.24 µM [cytotoxic, full curve, poor fit] | 
COC1CC(OC2CCC3(C)C(CCC4C3CCC3(C)C(C5=CC(=O)OC5)C(OC(C)=O)CC43O)C2)OC(C)C1OC1OC(CO)C(O)C(O)C1O (configuration not stated) | inconclusive: 2.82 µM | inconclusive: 2.82 µM [cytotoxic, full curve, poor fit] | active: 1.26 µM | 
C/C=C(\C)C(O)C(C)/C=C(C)/C=C/C/C(C)=C/Cc1nc(OC)c(OC)c(O[C@@H]2O[C@@H](C)[C@H](O)[C@@H](O)[C@H]2O)c1C (some centres not stated) | inconclusive: 1.41 µM [cytotoxic, full curve] | active: 3.16 µM | inconclusive: 14.1 µM [cytotoxic, partial curve, poor fit] | 
CC[C@H]1C2CC3[C@@H]4N(C)c5ccccc5[C@]45C[C@@H]([C@H]2[C@H]5O)N3[C@H]1O | inactive | inactive |  | 
CC(C)Oc1cccc(NC(=O)c2ccccc2C(F)(F)F)c1 | inconclusive: 70.8 µM [cytotoxic, single point] | inconclusive: 39.8 µM [cytotoxic, single point] | inconclusive: 70.8 µM [cytotoxic, single point] | inconclusive: 70.8 µM [cytotoxic, single point]
CC1(N2CCC(n3c([C@@H]4CCCNC4)nc4ccccc43)CC2)CCCCCCC1 | active: 15.8 µM | inconclusive: 25.1 µM [cytotoxic, partial curve, poor fit] | inconclusive: 39.8 µM [cytotoxic, single point] | 
C[C@@H]1O[C@@H](O[C@H]2CC[C@@]3(C)C(CC[C@@H]4C3CC[C@]3(C)[C@@H](C5=CC(=O)OC5)CC[C@]43O)C2)[C@H](O)[C@H](O)[C@H]1O (some centres not stated) | active: 1 µM | active: 2 µM | active: 1 µM | 
S=C(SSC(=S)N1CCCCC1)N1CCCCC1 | inconclusive: 35.5 µM [cytotoxic, partial curve, poor fit] | active: 3.98 µM | inconclusive: 39.8 µM [cytotoxic, single point] | active: 14.1 µM
CO[C@H]1C[C@H](O[C@H]2CC[C@]3(CO)[C@H]4CC[C@]5(C)[C@@H](C6=CC(=O)OC6)CC[C@]5(O)[C@@H]4CC[C@]3(O)C2)O[C@H](C)[C@H]1O | active: 0.112 µM | active: 0.158 µM | active: 0.141 µM | active: 0.0316 µM
Clc1ccc(COC(Cn2ccnc2)c2ccc(Cl)cc2Cl)cc1 (configuration not stated) | inconclusive: 22.4 µM [cytotoxic, partial curve, poor fit] | active: 28.2 µM | inconclusive: 39.8 µM [cytotoxic, single point] | inconclusive: 39.8 µM [cytotoxic, single point]
C[C@H]1C/C=C/[C@H]2[C@@H]3O[C@]3(C)[C@@H](C)[C@H]3[C@H](Cc4ccccc4)NC(=O)[C@]32OC(=O)O/C=C/[C@@](C)(O)C1=O | active: 2.51 µM | active: 2 µM | inconclusive: 1.26 µM [cytotoxic, full curve] | active: 3.16 µM
CC1=CC(=O)[C@@H](O)[C@]2(C)C3[C@@H](O)[C@@H]4OC(=O)[C@@H]([C@H]4C)[C@]3(C)C(=O)C[C@@H]12 (some centres not stated) | active: 2.82 µM | inconclusive: 1.58 µM [cytotoxic, full curve, poor fit] | inconclusive: 10 µM [cytotoxic, partial curve, poor fit] | inconclusive: 14.1 µM [cytotoxic, partial curve, poor fit]
CC(C)(C)CC(C)(C)c1ccc(O)cc1 | inconclusive: 70.8 µM [cytotoxic, single point] | inconclusive: 28.2 µM [cytotoxic, partial curve] | inconclusive: 35.5 µM [cytotoxic, single point] and inactive | inconclusive: 44.7 µM [cytotoxic, single point]
Cc1sc2c(c1C)C(c1ccc(Cl)cc1)=NC(CC(=O)OC(C)(C)C)c1nnc(C)n1-2 (configuration not stated) | active: 2 µM | inconclusive: 0.794 µM [cytotoxic, full curve, poor fit] | inconclusive: 4.47 µM [cytotoxic, full curve] | inconclusive: 2.24 µM [cytotoxic, full curve]
CC1=CC2/C=C(\C)CCC(O)C(O)C(O)CC(=O)C23C(=O)NC(CC(C)C)C3C1C (configuration not stated) | inconclusive: 17.8 µM [cytotoxic, single point] | inconclusive: 6.31 µM [cytotoxic, partial curve] | inconclusive: 20 µM [cytotoxic, single point] | inconclusive: 17.8 µM [cytotoxic, single point]
CCOC(=O)c1ccnc2cc(C(OCCN3CCCCC3)c3ccccc3Cl)sc12 (configuration not stated) | inconclusive: 39.8 µM [cytotoxic, single point] | inconclusive: 31.6 µM [cytotoxic, single point] | inconclusive: 35.5 µM [cytotoxic, single point] | inconclusive: 39.8 µM [cytotoxic, single point]
Fc1cc(F)c2c(c1)[C@H]1C=CC[C@H]1C(c1cccnc1)N2 (some centres not stated) | inconclusive: 35.5 µM [cytotoxic, single point] | inconclusive: 31.6 µM [cytotoxic, single point] | inconclusive: 39.8 µM [cytotoxic, single point] | inconclusive: 39.8 µM [cytotoxic, single point]
CCCCCCCCCCCC[N+](C)(C)CCOc1ccccc1 | inconclusive: 39.8 µM [cytotoxic, single point] | inconclusive: 31.6 µM [cytotoxic, partial curve, poor fit] | inconclusive: 35.5 µM [cytotoxic, single point] | inconclusive: 39.8 µM [cytotoxic, single point]
